Assay results published in the supplement of paper PMC11417369.
± gives the standard deviation of the averaged measurements. Some of the results follow.

system: PfAP2-LT AP2 domain (GST-tagged); assay: gcPBM binding intensity (ln(normalized median fluorescence intensity)); higher = stronger DNA binding
Method in brief: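 The highest Masliner-normalised natural-log median intensity across replicate spots of either probe orientation is reported as binding intensity. GST-tagged P. falciparum DNA-binding domains expressed in E. coli were applied for 1 h to an Agilent 4 × 180k array of primer-extended double-stranded 36-bp intergenic genomic probes plus negative controls, and bound protein was detected with Alexa488 anti-GST antibody and scanned at 488 nm.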

Row | Sequence | gcPBM binding intensity (ln)
1 | GAATGCCTTGAAAATAGTACAATTAAGAAAAAATAC [XGTACX_site8002] | 8.77 ± 0.39
2 | AATAAAAGATCATTTATTCTTTTTTTTCTTTTTAAA [CACACA_negctrl_site1256] | 8.12 ± 0.51
3 | TAAATAAATTTATACACACACACACCGATATATATA [CACACA_site4622] | 9.92 ± 0.057
4 | AAAATACATAAACGTTCACACATTTAAGATAACGAG [CACACA_site5345] | 8.96 ± 0.47
5 | GAAAATTTTTGGTGTACACAAAAAAATCCAAAAAAA [CACACA_site5042] | 8.73 ± 0.57
6 | TATGATTGTTTACGTTGTACAGCTGAATTGTTCTTA [XGTACX_site8114] | 8.95 ± 0.36
7 | TTTTATTTTATAAAAATAAAAAAAAAATTATTACAA [TGCATGCA_negctrl_site508] | 8 ± 0.42
8 | AATTAAATAAATGTATGTACATAATAAATATGTATT [XGTACX_site4379] | 8.84 ± 0.49
9 | TGAAAATAGTTAATTTGTACACAAAAATTAAGAAAA [XGTACX_site5794] | 8.79 ± 0.51
10 | AAAGAAATATATACAAAAATATGAACAATTTATTAT [XGTACX_negctrl_site78] | 8.7 ± 0.42
11 | TTTTCGATGTTGGTAGGATGTATGGTACACGTAGTA [TGCATGCA_negctrl_site61] | 8.71 ± 0.42
12 | TATGAAAATATATATTGTACAGAATCTATAAAAAAT [XGTACX_site8030] | 8.72 ± 0.51
13 | TATAATAATATATATTGTACACACAAAATGGGAAAA [XGTACX_site3911] | 9.02 ± 0.45
14 | GAATTTATGAACTGTGCATGTAAAAAAAACAACAAA [TGCATGCA_site449] | 8.88 ± 0.41
15 | TATATGAAGCTATAGACACACATATAAAAATATAAT [CACACA_site4850] | 9.01 ± 0.49
16 | AAAAATTCTTTTTCATCTATATGCAGAAAGAAAAAG [CACACA_negctrl_site1201] | 8.08 ± 0.4
17 | CTAAATAAAGTTAACACACACATAATATATATATGT [CACACA_site486] | 9.29 ± 0.33
18 | TAATTTTTATGAAGAAGTACAAAATCTACTATCATA [XGTACX_site4985] | 8.24 ± 0.39
19 | CATAAACTTTTTAACACACACTTATATATATATATA [CACACA_site4747] | 9.24 ± 0.13
20 | TACATCTGTAATGTGTGTACATATATGTATATATTT [XGTACX_site1805] | 9.07 ± 0.39
21 | AATGAAATAAAATAAAGTACATATATGTAAAAGTAG [XGTACX_site5650] | 9.79 ± 0.49
22 | ATATATATAATATGATGTACATATTTATTTATATAT [XGTACX_site7333] | 8.76 ± 0.35

Row | Sequence | gcPBM binding intensity (ln)
23 | TTTTTTTTTTTTTACACACACAAAATATTATCTGTA [CACACA_site5378] | 9.12 ± 0.42
24 | AATTGAAAAGAATGAAGTACACATTTGATGATACAT [XGTACX_site5182] | 8.8 ± 0.44
25 | ATATAAAAAAAAGATGAAAAAAAAAATGAAAGAAAG [CACACA_negctrl_site1266] | 8.72 ± 0.53
26 | ACTCTCTTATATTAAACACACATATTTATAGGTATA [CACACA_site7302] | 8.96 ± 0.43
27 | ATTTTAGAATAAATTTTTTACATTAAAAAACTATTT [CACACA_negctrl_site1414] | 8.21 ± 0.54
28 | GTATCAAAAGAATACACACACACATACATATATATA [CACACA_site3796] | 10 ± 0.28
29 | CATACAATAAATATGGTGCATTTTATGTAACCGTTT [GTGCAC_site9420] | 8.82 ± 0.42
30 | TGAACATATTAAAATTGTACATATGCACAATATGTA [XGTACX_site6801] | 8.76 ± 0.41
31 | AAGGATATAACATACACACACACACGGATATAAATA [CACACA_site7867] | 10.2 ± 0.37
32 | CATCTAAATTGTAGTTGTACACCTTAATCTTATTAC [XGTACX_site7547] | 8.93 ± 0.54
33 | TATTTTATCATTTGCACACGCACACCGACATAAAAA [CACACA_site4348] | 9.26 ± 0.28
34 | ATAAAAATATGATCAACACACGATTAAATATTCATA [CACACA_site1495] | 8.85 ± 0.43
35 | TGAAAAATAAATAAATGTACATATATATATATATAC [XGTACX_site7310] | 9.02 ± 0.27
36 | AAAAGGTTATCAATATGTACATATTTTTTTATTTTT [XGTACX_site3277] | 8.79 ± 0.49
37 | AGAAATACAAAATAAATATAAGAAACAAAATATTTA [CACACA_negctrl_site780] | 8.73 ± 0.49
38 | TTTTAATTAAAACACACACACACATATATATATATA [CACACA_site2291] | 9.83 ± 0.18
39 | TATTTCATCATATTGTGTACTTAATTTATATAATTA [XGTACX_site5753] | 8.66 ± 0.47
40 | TGATAATTTTTTACATGTACAAGTTTGTTTTTGCAT [XGTACX_site125] | 9.09 ± 0.46
41 | TTATCGGTATAATATAGTACATATAGATATATAATA [XGTACX_site1440] | 8.68 ± 0.41
42 | GATAAAATGGATGGATGTACATTATTTCCATATAAT [XGTACX_site7781] | 8.77 ± 0.44
43 | ATATTACTTCCTAAGTGTACAAGTAAGGAGAAAAAA [XGTACX_site3921] | 8.77 ± 0.45
44 | AAAAAAAAAAAAAACACACACACAAAATAAACAAAC [CACACA_site2720] | 9.66 ± 0.44

Row | Sequence | gcPBM binding intensity (ln)
45 | AGATGTTTTTATATATGTACTTAAATACACAAATAT [XGTACX_site8250] | 8.7 ± 0.43
46 | AAAAAAAAAAAAATGTAATTTTTTAATTATTTATAT [GTGCAC_negctrl_site436] | 8.07 ± 0.46
47 | CATATATTTTTGTATAGTACTTTTTTTATTCGTTTT [XGTACX_site1860] | 8.84 ± 0.54
48 | ATAATGGAGAAATAAGCATGCATTATATTATAAAAA [TGCATGCA_site325] | 8.88 ± 0.49
49 | AATTTCTATTTTGTGAGTACATACTCCTATTATATA [XGTACX_site3210] | 8.88 ± 0.47
50 | TAAAAGTTAATATAAACACACAAAAATTAATAAATA [CACACA_site6316] | 8.73 ± 0.45
51 | TGAATATTTCTATATACACACATATAAATATAAATA [CACACA_site7593] | 8.72 ± 0.41
52 | TATAATGAGAAGATATAATATATAGGGGGTAATTCT [GTGCAC_negctrl_site228] | 9.23 ± 0.18
53 | ATATATATATATATATGTACTTATTTGTATAAATAC [XGTACX_site8031] | 9.54 ± 0.29
54 | TTTTTTTCATAAGAAGCACACAAAAAATGATAGAGA [CACACA_site8401] | 8.63 ± 0.48
55 | TAGATTTTTATGCGTGCACACATTTAAAAAAAAAAC [CACACA_site3421] | 9.01 ± 0.41
56 | ATACCTACATACATACGTACATATATATATATAATG [XGTACX_site234] | 9.08 ± 0.28
57 | AAATATAATAACATAACACACACATGTATTTATAGG [CACACA_site8009] | 9.28 ± 0.38
58 | TTTTAATAAATTCAAAACATAAAAAGGAAAAAAAAA [XGTACX_negctrl_site471] | 8.29 ± 0.6
59 | TATTGGAAAATTAGAAGTACTTTCATATATTAGACT [XGTACX_site4503] | 8.51 ± 0.42
60 | TTTTTATTATTCCATAGTACAGAAAAAATGATATAT [XGTACX_site3431] | 8.31 ± 0.38
61 | ATTCTTTATTATTCGCCACACACATATATATATATA [CACACA_site9009] | 9.45 ± 0.38
62 | TGTAGTCTGGAGAAAAGTACACAGTATCTGGTAACC [XGTACX_site2033] | 8.8 ± 0.47
63 | ATATAGAATAAAACTATACACACCTATATTTAAACA [CACACA_site1902] | 8.91 ± 0.4
64 | ATATAAAAAAATAATAAATAAATAAAAAGATTTCTT [XGTACX_negctrl_site110] | 8.46 ± 0.49
65 | TATATTAATAAAGGTACTACACGGAAATGGAAATAT [XGTACX_site7760] | 8.98 ± 0.37
66 | CTTGTATAGAAACACACACACACTTTCTTTTTTTAA [CACACA_site1964] | 9.4 ± 0.28

Row | Sequence | gcPBM binding intensity (ln)
67 | AATTTGAAATATGTGGTGCAGTTATATAATATGTTT [GTGCAC_site9885] | 8.87 ± 0.41
68 | ATATTTTCCCTTGTTTTACACACGTGCTGATATGAG [CACACA_site8672] | 9.52 ± 0.35
69 | TAATAAATAAATGACACACACACACGCAAAAAAAAA [CACACA_site7275] | 9.94 ± 0.19
70 | AACAAATACGAACACACACACACACTAAAAAAAAAA [CACACA_site6386] | 10.3 ± 0.2
71 | ATAATATGAAAACACACACACACACCCAAAAAAAAA [CACACA_site2011] | 10.1 ± 0.15
72 | CACATTAATTTTTGGGTGCACTTGGGAAATTTTGGT | 8.75 ± 0.33
73 | ATATATATTATATATATATATATATATATATATATA [CACACA_negctrl_site493] | 9.32 ± 0.23
74 | AGGATATAATACCATACACACATTTATAAAATAACA [CACACA_site1930] | 9.09 ± 0.47
75 | TGTAATCAAAAAAATAGTACATAAATTGTGTATACT [XGTACX_site5908] | 8.71 ± 0.44
76 | CATACATAGATATATACACACATACCTATAAATACA [CACACA_site6513] | 9.31 ± 0.27
77 | TATATATGTGTTATATACCCTTTTTTATATATTAAT [XGTACX_negctrl_site313] | 8.78 ± 0.45
78 | TAAAAATCCACAAGCACACAAATGTACATATATATA [CACACA_site2462] | 9.04 ± 0.39
79 | TACGTCTTTTTTTTGGTGCATAATTTTTTTGTACAA | 8.78 ± 0.42
80 | TACACGTTCTACATTTGTACTTAATTTATACATAAG [XGTACX_site1579] | 8.94 ± 0.45
81 | AATTTTGTTAAAAGGACACACAATTCAATATATTAA [CACACA_site647] | 8.69 ± 0.45
82 | ATTACATGATATATCACACACACATATAGATATATA [CACACA_site7352] | 9.5 ± 0.31
83 | GCTATTAATTTATAAGCACACAATATAAATATATAT [CACACA_site2251] | 8.71 ± 0.35
84 | TATGTCGACATTTAAAGTACAAAAAAAAAAAAAAAA [XGTACX_site8985] | 8.44 ± 0.53
85 | TATATTAAAATATTCACACACTAACGTAAATCATTG [CACACA_site5520] | 8.79 ± 0.45
86 | ATTTATTTAAACAAATCACACACAAATATATATACA [CACACA_site8622] | 9.04 ± 0.35
87 | AGAAAAGAGAAAAGTAGTACAAAGGATCATTTAAAA [XGTACX_site5294] | 8.82 ± 0.52
88 | TTAAGTCCGTTAACAGTGCATTTTTTCTTTTATGTA [GTGCAC_site9867] | 8.79 ± 0.33
